Laboratory results from publication PMC12592546.
These are yes or no findings as the source states them, for the method shown. In cells and extracts the contact can be indirect. Some results given as binding are weak or reduced against the parent protein; the word gives no strength. For part of these data: Sequences can lack the tags named with a protein. Values belong to the binder of their own block, whether it stands above or below them.

Chains of the proteins cited; added tags and fusions are not shown.
UniProt Q06609: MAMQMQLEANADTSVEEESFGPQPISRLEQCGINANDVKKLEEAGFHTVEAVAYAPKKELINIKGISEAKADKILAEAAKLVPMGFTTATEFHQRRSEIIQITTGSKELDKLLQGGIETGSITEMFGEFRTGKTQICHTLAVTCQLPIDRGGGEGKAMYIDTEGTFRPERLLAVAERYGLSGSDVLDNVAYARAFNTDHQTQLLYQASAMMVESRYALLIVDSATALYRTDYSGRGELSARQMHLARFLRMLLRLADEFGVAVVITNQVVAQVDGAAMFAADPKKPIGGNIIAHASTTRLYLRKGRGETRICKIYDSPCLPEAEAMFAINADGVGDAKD
UniProt Q92830: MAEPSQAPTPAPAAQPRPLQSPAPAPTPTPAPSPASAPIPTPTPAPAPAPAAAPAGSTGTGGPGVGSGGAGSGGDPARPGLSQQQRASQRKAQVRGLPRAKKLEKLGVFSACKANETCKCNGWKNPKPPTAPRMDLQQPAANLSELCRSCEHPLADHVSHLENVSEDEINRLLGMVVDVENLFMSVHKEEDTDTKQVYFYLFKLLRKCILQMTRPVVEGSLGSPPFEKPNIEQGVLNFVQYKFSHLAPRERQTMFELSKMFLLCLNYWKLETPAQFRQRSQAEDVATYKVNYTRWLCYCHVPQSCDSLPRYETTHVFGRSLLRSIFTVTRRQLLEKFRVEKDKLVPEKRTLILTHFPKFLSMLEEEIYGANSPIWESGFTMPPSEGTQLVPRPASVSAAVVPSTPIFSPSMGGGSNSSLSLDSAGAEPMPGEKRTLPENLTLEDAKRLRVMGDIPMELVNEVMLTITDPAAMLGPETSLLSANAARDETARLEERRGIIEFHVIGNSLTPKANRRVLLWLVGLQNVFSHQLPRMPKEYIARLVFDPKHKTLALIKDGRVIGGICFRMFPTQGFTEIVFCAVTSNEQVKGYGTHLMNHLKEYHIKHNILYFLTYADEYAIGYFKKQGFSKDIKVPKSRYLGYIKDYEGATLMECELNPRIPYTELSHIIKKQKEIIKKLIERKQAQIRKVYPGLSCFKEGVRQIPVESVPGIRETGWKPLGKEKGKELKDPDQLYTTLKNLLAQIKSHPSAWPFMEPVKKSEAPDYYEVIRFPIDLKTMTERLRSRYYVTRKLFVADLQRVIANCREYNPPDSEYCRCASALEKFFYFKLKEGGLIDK

How the values were obtained:
[1] = molecular target: RAD51 (endogenous) (human (endogenous in Huh7 and LM3)) (UniProt Q06609); assay: co-IP; Huh7 and LM3 cells overexpressing HA-RAD52 or HA-RAD52^△Ex10; IP with anti-HA or anti-RAD51; HA-RAD52^△Ex10 also with or without Flag-SRSF11
[2] = molecular target: K(lysine) acetyltransferase 2A (KAT2A) (human (endogenous in Huh7 and LM3)) (UniProt Q92830); assay: co-IP; endogenous proteins in Huh7 and LM3 cells; IP with anti-SRSF11 and blot for KAT2A, or IP with anti-KAT2A and blot for SRSF11

binding [1]: no binding
B1: HA-RAD52^△Ex10 (protein, UniProt P43351)
chain: MSGTEEAILGGRDSHPAAGGGSVLCFGQCQYTAEEYQAIQKALRQRLGPEYISSRMAGGGQKVCYIEGHRVINLANEMFGYNGWAHSITQQNVDFVDLNNGKFYVGVCAFVRVQLKDGSYHEDVGYGVSEGLKSKALSLEKARKEAVTDGLKRALRSFGNALGNCILDKDYLRSLNKLPRQLPLEVDLTKAKRQDLEPSVEEARYNSCRPNMALGHPQLQQVTSPSRPSHAVIPADQDCSSRSLSSSAVESEATHQRKLRQKQLQQQFRERMEKQQVRVSTPSAEKSEKTLEDNSEKWAVTPDAGDGVVKPSSRADPAQTSDTLALNNQMVTQNRTPHSVCHQKPQAKSGSWDLQTYSADQRTTGNWESHRKSQDMKKRKYDPS

binding [1]: binds
B2: HA-RAD52 (protein, UniProt P43351 1-418)
chain: MSGTEEAILGGRDSHPAAGGGSVLCFGQCQYTAEEYQAIQKALRQRLGPEYISSRMAGGGQKVCYIEGHRVINLANEMFGYNGWAHSITQQNVDFVDLNNGKFYVGVCAFVRVQLKDGSYHEDVGYGVSEGLKSKALSLEKARKEAVTDGLKRALRSFGNALGNCILDKDYLRSLNKLPRQLPLEVDLTKAKRQDLEPSVEEARYNSCRPNMALGHPQLQQVTSPSRPSHAVIPADQDCSSRSLSSSAVESEATHQRKLRQKQLQQQFRERMEKQQVRVSTPSAEKSEAAPPAPPVTHSTPVTVSEPLLEKDFLAGVTQELIKTLEDNSEKWAVTPDAGDGVVKPSSRADPAQTSDTLALNNQMVTQNRTPHSVCHQKPQAKSGSWDLQTYSADQRTTGNWESHRKSQDMKKRKYDPS

binding [2]: binds
B3: serine/arginine-rich splicing factor 11 (SRSF11) (protein, UniProt Q05519 1-484)
chain: MSNTTVVPSTAGPGPSGGPGGGGGGGGGGGGTEVIQVTNVSPSASSEQMRTLFGFLGKIDELRLFPPDDSPLPVSSRVCFVKFHDPDSAVVAQHLTNTVFVDRALIVVPYAEGVIPDEAKALSLLAPANAVAGLLPGGGLLPTPNPLTQIGAVPLAALGAPTLDPALAALGLPGANLNSQSLAADQLLKLMSTVDPKLNHVAAGLVSPSLKSDTSSKEIEEAMKRVREAQSLISAAIEPDKKEEKRRHSRSRSRSRRRRTPSSSRHRRSRSRSRRRSHSKSRSRRRSKSPRRRRSHSRERGRRSRSTSKTRDKKKEDKEKKRSKTPPKSYSTARRSRSASRERRRRRSRSGTRSPKKPRSPKRKLSRSPSPRRHKKEKKKDKDKERSRDERERSTSKKKKSKDKEKDRERKSESDKDVKQVTRDYDEEEQGYDSEKEKKEEKKPIETGSPKTKECSVEKGTGDSLRESKVNGDDHHEEDMDMSD
